# The source gives no read counts; variants with many changes may rest on few reads.
# B1: LINE1-full (parent)
# chain: UACGUAGGUGGUUUUCCCCUGAUAGUGCUAAGGGGGCCUGGAAGUUUGGACUGGGCAGAGCUCAACACAGCGUGGCAAAGUGGCUGUGGCUAGACUGCCUCUCUGGAUUCCUCGUCACUCAGCAGGGCAUCUCUGAGAGAAAUGCC
# Variants of: B1
# Test: self-cleavage, relative activity (ratio to wild type); higher = more cleavage; in vitro, sequencing; the parent is a self-cleaving ribozyme
row,Variant,self-cleavage
1,U20C U46C C84U U102C,0.22
2,U23C A77C U115A,0.53
3,U47C A65U A129U U132C A138G,0.26
4,U52C G74A A94G,0.18
5,U13C U29G U73C U81A A92U A107U C131U,1.31
6,U15C A57U A64G,0.11
7,U52C U62C U85C,0
8,G48A A77G C133A,1.82
9,U134C A136U A140G,1.28
10,A65G A124G A129U,0
11,C68U A79C A92C,0.04
12,U12C A24G C51A U62A U109C U130C,0
13,U52C C71U U115C,0.7
14,U73A U102C A121U,1.73
15,U26A G88A U102C G139U,0.13
16,U13C U62C A78C U119A A140G,0.79
17,A31G A67G C111G A138G,1.53
18,A67G U87C U143C,2.04
19,A2U U9A U14C G33A A59C A78G U143C,0.32
20,G49U A50G A64C U115C,0
21,U1C U26A U87C,0.19
22,U14A U45C G53A U100A U108C,0.64
23,G4A U20A A69G U85A,0.13
24,A2U G35A A42U A78G,0.25

row,Variant,self-cleavage
1,A43G U47A G125A,0.56
2,A59G A107G C123U,0.08
3,U12C C28U A79U G80U,1.05
4,U14C A78U A94U A141G,0.53
5,G53U C61U U87A,0.02
6,U9C C38U G137A A140G A142C,0.54
7,C17A A79G G114A,1.02
8,U26A A42C U73C,0.32
9,A50U A57U U143C,0.1
10,C3U U62C A136G A138G,0.15
11,A57G U73A U85C U108G U143C,0.66
12,U14C A69U U81A U108C,0.21
13,A6U U108C A140G,2.3
14,U39C A64U U115A,0.33
15,U20C U62A U119C,0.13
16,U15C C61U A65U A107U A141U,0.06
17,A94U G126A A140C,0.29
18,A50G A121G A140G,0.34
19,C101A G114A A117G,1.34
20,G80A U100A U102A U104G,1.18
21,C37A A43G U47C U104A,1.11
22,G4C U9C A57U,0.38
23,U26A G32A A57G U102C,0.15
24,U20A U52A A140U,1.09

row,Variant,self-cleavage
1,A6U U29C U39C A67G G74A U96A A129G,0.27
2,U81A U96C U112A,0.12
3,G35U U85A A94G,0.13
4,U13C U47A G58A U87A,0.01
5,U9C A65G U100C,0
6,A24G A65G U85C U100C G105A U112C U115A C116U,0
7,G10A A79G A94G,0.28
8,A22G U39C A136G,1.18
9,U39A A92G U143A,0.23
10,C16U G35A G74U G105A C120U,1.5
11,A77U C99U U104A A140G,0.12
12,U12A G88U A92G,0
13,U1G G97A A117G,0.22
14,U115A U119A A140G,1.56
15,U14A U62A A79G,0.05
16,U12G A30G U85C G93U U115C A129G A138G,0
17,U9G A43G A142G,0.57
18,U5A A77U U85G U132C,0.17
19,G34A A94U A117U G125A,0.22
20,U47G U52A A142U,1.51
21,U14C G53U C84U A117G,0.36
22,U39A U46A U134A,1.25
23,U96A C113U A117U U119C,0
24,U9G U14C C68U U104A,0

row,Variant,self-cleavage
1,G10U A136G C146U,1.36
2,U13C U62C U104C U134G,0
3,G70A U87C A107G,0.06
4,U108C A141G U143A G144A,1.8
5,U5C U73A U104A,1.09
6,U13C A31U U47C U73A U109C U119C,0
7,U100C U134G U143C,1.35
8,U15C A57G G83A,0.57
9,U87A U130A A136U,0.07
10,U23A A31G A94G,0.5
11,U9C U119A A140G,0.4
12,U45A A77G U85C,0.16
13,U26A C56U A69G,0.07
14,U26C U45G U109G G125U A129G A140G,0
15,G86U U112C A142G,0.03
16,A78U U102A A141G,2.15
17,U29C A69U U112C,0.13
18,A64G C110A A138G,0.17
19,G10A U20G U134A,0.98
20,A59G A65G U143C,0.24
21,A2G A43G U109C C111U,0.53
22,U29A U45C U73C,1.53
23,U15A A42G U52G A67C C68U,0
24,U9A A117G G125A,1.09

row,Variant,self-cleavage
1,U13C C28U A59G A121G,0.26
2,A6U U20G U96C A124U,0
3,A6G G33U U52A U112A A142G,0.87
4,A2G U5A A67G A92G A142G,0
5,A65G A140G U143A,0.08
6,G4C A77G U109C,2.14
7,A65G U132C A138G,0.05
8,G33U G34U U96C U100C U104C,0
9,C19U U29A U46A A50G A64G U112A A136G,0.35
10,U12C G54A A64G A121G A136G,0.21
11,A22U A67G A78G,0.57
12,U47C C90U U119A,0.03
13,U12C U96C U100A U130C,0
14,A2G G53A U96C A121U,0.21
15,G58A C84U C103A C111A,0.02
16,U26C U112C A121G A129G,0
17,A64G A79G U130C,0.47
18,A24G A64U A138G,0.74
19,G11C G35A U112A G114A U130C,1.79
20,A50G U85A U100C,0.14
21,A22U G35A A121U,0.67
22,U23C G126A U132C,1.1
23,G48A A67C U119A,0.01
24,A42G U45A U100C,2.12

row,Variant,self-cleavage
1,A64G A107G G125U,0.23
2,G35U A57U G105U,0.14
3,A22G U47C U115A U134C,1.49
4,A69U U130A U132C,0.09
5,A42G A65G U85A,0
6,U108C A129G C131U,1.53
7,U26G A94G C95A A142U,0.14
8,U46A A94G A124G,0.34
9,U47A A64G U91C A138G,0.13
10,U20C U26A A67G,0.27
11,G55A A67U G88A A142G,0.02
12,A42G A57U C71U U100A,0
13,U14C U26C G127U,1.26
14,U12G U15C U85C A117G,1.84
15,U15C A124U A140G,1.25
16,A65U U112A A140U U143A,0.35
17,U13C A65G A67U A138G A142G,0
18,A43G A65U A94G,0.11
19,G33A U100C U104C,1.38
20,U13C U39C G54A A59U A138G,0.81
21,G32A A42G U73C A142C,1.2
22,U1C U81A A92U U143A,0.48
23,U9C U23A A92G,0
24,A2U U29C G86A A107G U134C,0.17

row,Variant,self-cleavage
1,U9C A50G G86A A107U,0.06
2,A124G A140U U143A,1.15
3,U85A U115A U119C G125U,0.08
4,G75A A107G U119C,1.11
5,U47C A67G U96A A141G,0.19
6,A2G A107G C113U,0.95
7,U87A U108C A136G,0.07
8,A6G U9A U91C,0.5
9,C16U G55A U87A A107G,0.04
10,U13C A30G U62A G105A U109A,0.14
11,A67G U115C A140U,0.6
12,C19U A65G U96C,0.08
13,A31G A42G A141G,1.23
14,U13C U20C G36A U39C U85A,0.19
15,U14C A77G A124G,0.84
16,U91A A141G G144A,1.12
17,U45C G106A C118U,0
18,G34U A142G U143A,1.65
19,U13C U109C A141G,1.63
20,A77U A78G A124U,0.8
21,U5A A6G U13C G34A U52C A69G,0.17
22,U14C A79G U132A U134C,2.36
23,U9A U46C U85C C101U,0.21
